Measurements taken from the supplement of paper PMC4967469.

Legend:
Test in all cases: Viability of human cancer cell lines after 72 h of drug (GDSC screen)
JQ1 = compound: Cc1sc2c(c1C)C(c1ccc(Cl)cc1)=N[C@@H](CC(=O)OC(C)(C)C)c1nnc(C)n1-2 [JQ1]
Experimental: (§1)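 Human cancer cell lines in 384-well plates, medium with 10% serum, drug for 72 h over a 256-fold dose range (nine 2-fold or five 4-fold steps up to the top dose). Adherent lines were fixed and stained with the nucleic acid dye Syto60, suspension lines read with resazurin; signal relative to control wells, capped at 0 and 100%. One two-parameter sigmoid per drug and line, fitted in a mixed model over all curves with the slope shared within a line.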

Docetaxel = compound: CC(=O)O[C@@]12CO[C@@H]1C[C@H](O)[C@@]1(C)C(=O)[C@H](O)C3=C(C)[C@@H](OC(=O)[C@H](O)[C@@H](NC(=O)OC(C)(C)C)c4ccccc4)C[C@@](O)([C@@H](OC(=O)c4ccccc4)[C@H]21)C3(C)C [Docetaxel]; conditions: top dose 0.0125 µM
Experimental: as §1

YM155 = compound: COCC[n+]1c2c(n(Cc3cnccn3)c1C)C(=O)c1ccccc1C2=O [YM155]; conditions: top dose 5.12 µM
Experimental: as §1

OSI-906 = compound: C[C@]1(O)C[C@@H](c2nc(-c3ccc4ccc(-c5ccccc5)nc4c3)c3c(N)nccn32)C1 [OSI-906]; conditions: top dose 2.56 µM; top dose inferred
Experimental: as §1

Belinostat = compound: O=C(/C=C/c1cccc(S(=O)(=O)Nc2ccccc2)c1)NO [Belinostat]; conditions: top dose 20 µM; top dose inferred
Experimental: as §1

JNK Inhibitor VIII = compound: CCOc1nc(NC(=O)Cc2cc(OC)ccc2OC)cc(N)c1C#N [JNK Inhibitor VIII]; conditions: top dose 10 µM; top dose inferred
Experimental: as §1

JNJ-26854165 = compound: c1ccc2c(CCNc3ccc(Nc4ccncc4)cc3)c[nH]c2c1 [JNJ-26854165]; conditions: top dose 10 µM
Experimental: as §1

NSC-207895 = compound: CN1CCN(c2ccc([N+](=O)[O-])c3no[n+]([O-])c23)CC1 [NSC-207895]; conditions: top dose 20 µM; top dose inferred
Experimental: as §1

SB-715992 = compound: Cc1ccc(C(=O)N(CCCN)[C@@H](c2nc3cc(Cl)ccc3c(=O)n2Cc2ccccc2)C(C)C)cc1 [SB-715992]; conditions: top dose 0.128 µM; top dose inferred
Experimental: as §1

AMG-706 = compound: CC1(C)CNc2cc(NC(=O)c3cccnc3NCc3ccncc3)ccc21 [AMG-706]; conditions: top dose 2 µM; top dose inferred
Experimental: as §1

FTI-277 = compound: COC(=O)[C@H](CCSC)NC(=O)c1ccc(NC[C@@H](N)CS)cc1-c1ccccc1 [FTI-277]; conditions: top dose 1.024 µM; top dose inferred
Experimental: as §1

[1] = top dose 1 µM, screen: GDSC drug entry 1218, top dose inferred
[2] = top dose 2.56 µM, screen: GDSC drug entry 163

Cell Line | AUC (JQ1; [1]) | IC50 (JQ1; [1]) | AUC (JQ1; [2]) | IC50 (JQ1; [2]) | AUC (Docetaxel) | IC50 (Docetaxel) | AUC (YM155) | IC50 (YM155) | AUC (OSI-906) | IC50 (OSI-906) | AUC (Belinostat) | IC50 (Belinostat) | AUC (JNK Inhibitor VIII) | IC50 (JNK Inhibitor VIII) | AUC (JNJ-26854165) | IC50 (JNJ-26854165) | AUC (NSC-207895) | IC50 (NSC-207895) | AUC (SB-715992) | IC50 (SB-715992) | AUC (AMG-706) | IC50 (AMG-706) | AUC (FTI-277) | IC50 (FTI-277)
OVCAR-5 (ovary, adherent) | 0.969 | > 1 µM | 0.756 | 1.04 µM | 0.657 | 0.00235 µM | 0.09 | < 0.02 µM | 0.816 | 1.79 µM | 0.382 | 0.553 µM | 0.937 | > 10 µM | 0.873 | > 10 µM | 0.982 | > 20 µM | 0.792 | 0.0714 µM | 0.91 | > 2 µM | 0.971 | > 1.02 µM
MG-63 (osteosarcoma, adherent) | 0.971 | > 1 µM | 0.423 | 0.0955 µM | 0.609 | 0.00164 µM | 0.814 | 3.37 µM | 0.941 | > 2.56 µM | 0.984 | > 20 µM | 0.971 | > 10 µM | 0.839 | 8.46 µM | 0.981 | > 20 µM | 0.98 | > 0.128 µM | 0.893 | > 2 µM | 0.95 | > 1.02 µM
UACC-893 (breast, adherent) | 0.98 | > 1 µM | 0.843 | > 2.56 µM | 0.904 | > 0.0125 µM | 0.455 | 0.231 µM | 0.977 | > 2.56 µM | 0.67 | 4.39 µM | 0.973 | > 10 µM | 0.833 | 9.8 µM | 0.974 | > 20 µM | 0.874 | > 0.128 µM | 0.976 | > 2 µM | 0.962 | > 1.02 µM
MS751 (cervix, adherent) | 0.83 | 0.562 µM | 0.651 | 0.405 µM | 0.612 | 0.00154 µM | 0.14 | 0.0272 µM | 0.987 | > 2.56 µM | 0.68 | 3.81 µM | 0.985 | > 10 µM | 0.959 | > 10 µM | 0.909 | > 20 µM | 0.914 | > 0.128 µM | 0.972 | > 2 µM | 0.99 | > 1.02 µM
C3A (liver, adherent) | 0.984 | > 1 µM | 0.754 | 0.895 µM | 0.934 | > 0.0125 µM | 0.965 | > 5.12 µM | 0.984 | > 2.56 µM | 0.722 | 5.49 µM | 0.988 | > 10 µM | 0.934 | > 10 µM | 0.988 | > 20 µM | 0.987 | > 0.128 µM | 0.978 | > 2 µM | 0.985 | > 1.02 µM
KMRC-1 (kidney, adherent) | 0.982 | > 1 µM | 0.755 | 0.915 µM | 0.957 | > 0.0125 µM | 0.074 | < 0.02 µM | 0.979 | > 2.56 µM | 0.468 | 1.02 µM | 0.978 | > 10 µM | 0.858 | 9.01 µM | 0.908 | > 20 µM | 0.987 | > 0.128 µM | 0.987 | > 2 µM | 0.927 | > 1.02 µM
CAL-39 (cervix, adherent) | 0.98 | > 1 µM | 0.702 | 0.609 µM | 0.66 | 0.00222 µM | 0.4 | 0.168 µM | 0.857 | 2.21 µM | 0.55 | 1.72 µM | 0.986 | > 10 µM | 0.925 | > 10 µM | 0.931 | > 20 µM | 0.926 | > 0.128 µM | 0.983 | > 2 µM | 0.943 | > 1.02 µM
SNU-182 (liver, adherent) | 0.908 | > 1 µM | 0.606 | 0.317 µM | 0.553 | 0.0011 µM | 0.266 | 0.0662 µM | 0.978 | > 2.56 µM | 0.37 | 0.536 µM | 0.905 | > 10 µM | 0.884 | > 10 µM | 0.952 | > 20 µM | 0.582 | 0.0136 µM | 0.936 | > 2 µM | 0.985 | > 1.02 µM
JHU-011 (head and neck, adherent) | 0.984 | > 1 µM | 0.639 | 0.385 µM | 0.364 | 0.000331 µM | 0.024 | < 0.02 µM | 0.844 | 1.78 µM | 0.341 | 0.456 µM | 0.947 | > 10 µM | 0.835 | 6.41 µM | 0.881 | > 20 µM | 0.634 | 0.0186 µM | 0.97 | > 2 µM | 0.936 | > 1.02 µM
CHSA8926 (chondrosarcoma, adherent) | 0.975 | > 1 µM | 0.927 | > 2.56 µM | 0.707 | 0.0039 µM | 0.336 | 0.092 µM | 0.979 | > 2.56 µM | 0.831 | > 20 µM | 0.975 | > 10 µM | 0.908 | > 10 µM | 0.976 | > 20 µM | 0.98 | > 0.128 µM | 0.848 | > 2 µM | 0.912 | > 1.02 µM
Saos-2 (osteosarcoma, adherent) | 0.978 | > 1 µM | 0.454 | 0.114 µM | 0.648 | 0.0024 µM | 0.95 | > 5.12 µM | 0.61 | 0.364 µM | 0.981 | > 20 µM | 0.98 | > 10 µM | 0.904 | > 10 µM | 0.981 | > 20 µM | 0.974 | > 0.128 µM | 0.978 | > 2 µM | 0.886 | > 1.02 µM

A lower IC50 marks a more sensitive line; a limit (>, <) means that the fit lies beyond the doses tested. AUC, from the same fit, is the share of area under the viability curve across the 256-fold dose range; it is 1 without any effect and falls as sensitivity rises. For part of these data: Any top dose called inferred was calculated from the reported fits. For part of these data: An entry number marks a drug with two screens in the source, which often give different values.
